Source: the supplement of paper PMC12230231

What follows are sequences tested on SIVsab (simian immunodeficiency virus of sabaeus monkeys), single-cycle GFP reporter, in CRFK cells (assay: enrichment among infected cells over input (fold); higher = weaker restriction). Details: library: human / rhesus combinations.
Procedure: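 Pools of CRFK cells expressing variants of the TRIM5α v1 loop were challenged with the single-cycle reporter, sorted by GFP and sequenced; mean of two replicates.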

Sequence | enrichment
MASGILLNVKEEVTCPICLELLTEPLSLHCGHSFCQACITANHKKSMLYKEGERSCPVCRISYQPENIQPNRHVANIVEKLREVKLSPEEGQKVDHCARHGEKLLLFCQEDSKVICWLCERSQEHRGHHTFLMEEVAQEYHVKLQTALEMLRQKQQEAEKLEADIREEKASWKIQIDYDKTNVSADFEQLREILDWEESNELQNLEKEEEDILKSLTKSETEMVQQTQYMRELISELEHRLQGSMMDLLQGVDGIIKRIENMTLKKPKTFHKNQRRVFRAPDLKGMLDMFRELTDARRYWVDVTLAPNNISHAVIAEDKRQVSSRNPQIMYQARGTRYTFQSFTNFNYCTGVLGSQSITSGKHYWEVDVSKKSAWILGVCAGFQSDAMYNIEQNENYQPKYGYWVIGLQEGVKYSVFQDGSSHTPFAPFIVPLSVIICPDRVGVFVDYEACTVSFFNITNHGFLIYKFSQCSFSKPVFPYLNPRKCTVPMTLCSPSS [rhesus TRIM5α, 332-344 = QARGTRYTFQSFT] | 1.18 ± 0.63
MASGILLNVKEEVTCPICLELLTEPLSLHCGHSFCQACITANHKKSMLYKEGERSCPVCRISYQPENIQPNRHVANIVEKLREVKLSPEEGQKVDHCARHGEKLLLFCQEDSKVICWLCERSQEHRGHHTFLMEEVAQEYHVKLQTALEMLRQKQQEAEKLEADIREEKASWKIQIDYDKTNVSADFEQLREILDWEESNELQNLEKEEEDILKSLTKSETEMVQQTQYMRELISELEHRLQGSMMDLLQGVDGIIKRIENMTLKKPKTFHKNQRRVFRAPDLKGMLDMFRELTDARRYWVDVTLAPNNISHAVIAEDKRQVSSRNPQIMYGARGTLFTFQSFVNFNYCTGVLGSQSITSGKHYWEVDVSKKSAWILGVCAGFQSDAMYNIEQNENYQPKYGYWVIGLQEGVKYSVFQDGSSHTPFAPFIVPLSVIICPDRVGVFVDYEACTVSFFNITNHGFLIYKFSQCSFSKPVFPYLNPRKCTVPMTLCSPSS [rhesus TRIM5α, 332-344 = GARGTLFTFQSFV] | 1.57 ± 0.29
MASGILLNVKEEVTCPICLELLTEPLSLHCGHSFCQACITANHKKSMLYKEGERSCPVCRISYQPENIQPNRHVANIVEKLREVKLSPEEGQKVDHCARHGEKLLLFCQEDSKVICWLCERSQEHRGHHTFLMEEVAQEYHVKLQTALEMLRQKQQEAEKLEADIREEKASWKIQIDYDKTNVSADFEQLREILDWEESNELQNLEKEEEDILKSLTKSETEMVQQTQYMRELISELEHRLQGSMMDLLQGVDGIIKRIENMTLKKPKTFHKNQRRVFRAPDLKGMLDMFRELTDARRYWVDVTLAPNNISHAVIAEDKRQVSSRNPQIMYGARGTRYTFQSFVNFNYCTGVLGSQSITSGKHYWEVDVSKKSAWILGVCAGFQSDAMYNIEQNENYQPKYGYWVIGLQEGVKYSVFQDGSSHTPFAPFIVPLSVIICPDRVGVFVDYEACTVSFFNITNHGFLIYKFSQCSFSKPVFPYLNPRKCTVPMTLCSPSS [rhesus TRIM5α, 332-344 = GARGTRYTFQSFV] | 1.4 ± 0.19
MASGILLNVKEEVTCPICLELLTEPLSLHCGHSFCQACITANHKKSMLYKEGERSCPVCRISYQPENIQPNRHVANIVEKLREVKLSPEEGQKVDHCARHGEKLLLFCQEDSKVICWLCERSQEHRGHHTFLMEEVAQEYHVKLQTALEMLRQKQQEAEKLEADIREEKASWKIQIDYDKTNVSADFEQLREILDWEESNELQNLEKEEEDILKSLTKSETEMVQQTQYMRELISELEHRLQGSMMDLLQGVDGIIKRIENMTLKKPKTFHKNQRRVFRAPDLKGMLDMFRELTDARRYWVDVTLAPNNISHAVIAEDKRQVSSRNPQIMYGARGTLFTFQTFVNFNYCTGVLGSQSITSGKHYWEVDVSKKSAWILGVCAGFQSDAMYNIEQNENYQPKYGYWVIGLQEGVKYSVFQDGSSHTPFAPFIVPLSVIICPDRVGVFVDYEACTVSFFNITNHGFLIYKFSQCSFSKPVFPYLNPRKCTVPMTLCSPSS [rhesus TRIM5α, 332-344 = GARGTLFTFQTFV] | 1.82 ± 0.95
MASGILLNVKEEVTCPICLELLTEPLSLHCGHSFCQACITANHKKSMLYKEGERSCPVCRISYQPENIQPNRHVANIVEKLREVKLSPEEGQKVDHCARHGEKLLLFCQEDSKVICWLCERSQEHRGHHTFLMEEVAQEYHVKLQTALEMLRQKQQEAEKLEADIREEKASWKIQIDYDKTNVSADFEQLREILDWEESNELQNLEKEEEDILKSLTKSETEMVQQTQYMRELISELEHRLQGSMMDLLQGVDGIIKRIENMTLKKPKTFHKNQRRVFRAPDLKGMLDMFRELTDARRYWVDVTLAPNNISHAVIAEDKRQVSSRNPQIMYQARGTRFTFQTFTNFNYCTGVLGSQSITSGKHYWEVDVSKKSAWILGVCAGFQSDAMYNIEQNENYQPKYGYWVIGLQEGVKYSVFQDGSSHTPFAPFIVPLSVIICPDRVGVFVDYEACTVSFFNITNHGFLIYKFSQCSFSKPVFPYLNPRKCTVPMTLCSPSS [rhesus TRIM5α, 332-344 = QARGTRFTFQTFT] | 0.896 ± 0.58
MASGILLNVKEEVTCPICLELLTEPLSLHCGHSFCQACITANHKKSMLYKEGERSCPVCRISYQPENIQPNRHVANIVEKLREVKLSPEEGQKVDHCARHGEKLLLFCQEDSKVICWLCERSQEHRGHHTFLMEEVAQEYHVKLQTALEMLRQKQQEAEKLEADIREEKASWKIQIDYDKTNVSADFEQLREILDWEESNELQNLEKEEEDILKSLTKSETEMVQQTQYMRELISELEHRLQGSMMDLLQGVDGIIKRIENMTLKKPKTFHKNQRRVFRAPDLKGMLDMFRELTDARRYWVDVTLAPNNISHAVIAEDKRQVSSRNPQIMYGAPGTLYTFPSFTNFNYCTGVLGSQSITSGKHYWEVDVSKKSAWILGVCAGFQSDAMYNIEQNENYQPKYGYWVIGLQEGVKYSVFQDGSSHTPFAPFIVPLSVIICPDRVGVFVDYEACTVSFFNITNHGFLIYKFSQCSFSKPVFPYLNPRKCTVPMTLCSPSS [rhesus TRIM5α, 332-344 = GAPGTLYTFPSFT] | 0.891 ± 0.16
MASGILLNVKEEVTCPICLELLTEPLSLHCGHSFCQACITANHKKSMLYKEGERSCPVCRISYQPENIQPNRHVANIVEKLREVKLSPEEGQKVDHCARHGEKLLLFCQEDSKVICWLCERSQEHRGHHTFLMEEVAQEYHVKLQTALEMLRQKQQEAEKLEADIREEKASWKIQIDYDKTNVSADFEQLREILDWEESNELQNLEKEEEDILKSLTKSETEMVQQTQYMRELISELEHRLQGSMMDLLQGVDGIIKRIENMTLKKPKTFHKNQRRVFRAPDLKGMLDMFRELTDARRYWVDVTLAPNNISHAVIAEDKRQVSSRNPQIMYGAPGTRYPSLVNFNYCTGVLGSQSITSGKHYWEVDVSKKSAWILGVCAGFQSDAMYNIEQNENYQPKYGYWVIGLQEGVKYSVFQDGSSHTPFAPFIVPLSVIICPDRVGVFVDYEACTVSFFNITNHGFLIYKFSQCSFSKPVFPYLNPRKCTVPMTLCSPSS [rhesus TRIM5α, 332-344 = GAPGTRYPSLV] | 0.749 ± 0.072
MASGILLNVKEEVTCPICLELLTEPLSLHCGHSFCQACITANHKKSMLYKEGERSCPVCRISYQPENIQPNRHVANIVEKLREVKLSPEEGQKVDHCARHGEKLLLFCQEDSKVICWLCERSQEHRGHHTFLMEEVAQEYHVKLQTALEMLRQKQQEAEKLEADIREEKASWKIQIDYDKTNVSADFEQLREILDWEESNELQNLEKEEEDILKSLTKSETEMVQQTQYMRELISELEHRLQGSMMDLLQGVDGIIKRIENMTLKKPKTFHKNQRRVFRAPDLKGMLDMFRELTDARRYWVDVTLAPNNISHAVIAEDKRQVSSRNPQIMYGAPGTLYTFPTFTNFNYCTGVLGSQSITSGKHYWEVDVSKKSAWILGVCAGFQSDAMYNIEQNENYQPKYGYWVIGLQEGVKYSVFQDGSSHTPFAPFIVPLSVIICPDRVGVFVDYEACTVSFFNITNHGFLIYKFSQCSFSKPVFPYLNPRKCTVPMTLCSPSS [rhesus TRIM5α, 332-344 = GAPGTLYTFPTFT] | 1.5 ± 0.82
MASGILLNVKEEVTCPICLELLTEPLSLHCGHSFCQACITANHKKSMLYKEGERSCPVCRISYQPENIQPNRHVANIVEKLREVKLSPEEGQKVDHCARHGEKLLLFCQEDSKVICWLCERSQEHRGHHTFLMEEVAQEYHVKLQTALEMLRQKQQEAEKLEADIREEKASWKIQIDYDKTNVSADFEQLREILDWEESNELQNLEKEEEDILKSLTKSETEMVQQTQYMRELISELEHRLQGSMMDLLQGVDGIIKRIENMTLKKPKTFHKNQRRVFRAPDLKGMLDMFRELTDARRYWVDVTLAPNNISHAVIAEDKRQVSSRNPQIMYGAPGTLFPSLTNFNYCTGVLGSQSITSGKHYWEVDVSKKSAWILGVCAGFQSDAMYNIEQNENYQPKYGYWVIGLQEGVKYSVFQDGSSHTPFAPFIVPLSVIICPDRVGVFVDYEACTVSFFNITNHGFLIYKFSQCSFSKPVFPYLNPRKCTVPMTLCSPSS [rhesus TRIM5α, 332-344 = GAPGTLFPSLT] | 0.865 ± 0.058
MASGILLNVKEEVTCPICLELLTEPLSLHCGHSFCQACITANHKKSMLYKEGERSCPVCRISYQPENIQPNRHVANIVEKLREVKLSPEEGQKVDHCARHGEKLLLFCQEDSKVICWLCERSQEHRGHHTFLMEEVAQEYHVKLQTALEMLRQKQQEAEKLEADIREEKASWKIQIDYDKTNVSADFEQLREILDWEESNELQNLEKEEEDILKSLTKSETEMVQQTQYMRELISELEHRLQGSMMDLLQGVDGIIKRIENMTLKKPKTFHKNQRRVFRAPDLKGMLDMFRELTDARRYWVDVTLAPNNISHAVIAEDKRQVSSRNPQIMYGARGTRFTFPSFVNFNYCTGVLGSQSITSGKHYWEVDVSKKSAWILGVCAGFQSDAMYNIEQNENYQPKYGYWVIGLQEGVKYSVFQDGSSHTPFAPFIVPLSVIICPDRVGVFVDYEACTVSFFNITNHGFLIYKFSQCSFSKPVFPYLNPRKCTVPMTLCSPSS [rhesus TRIM5α, 332-344 = GARGTRFTFPSFV] | 1.66 ± 1.2
MASGILLNVKEEVTCPICLELLTEPLSLHCGHSFCQACITANHKKSMLYKEGERSCPVCRISYQPENIQPNRHVANIVEKLREVKLSPEEGQKVDHCARHGEKLLLFCQEDSKVICWLCERSQEHRGHHTFLMEEVAQEYHVKLQTALEMLRQKQQEAEKLEADIREEKASWKIQIDYDKTNVSADFEQLREILDWEESNELQNLEKEEEDILKSLTKSETEMVQQTQYMRELISELEHRLQGSMMDLLQGVDGIIKRIENMTLKKPKTFHKNQRRVFRAPDLKGMLDMFRELTDARRYWVDVTLAPNNISHAVIAEDKRQVSSRNPQIMYGARGTLFQTLTNFNYCTGVLGSQSITSGKHYWEVDVSKKSAWILGVCAGFQSDAMYNIEQNENYQPKYGYWVIGLQEGVKYSVFQDGSSHTPFAPFIVPLSVIICPDRVGVFVDYEACTVSFFNITNHGFLIYKFSQCSFSKPVFPYLNPRKCTVPMTLCSPSS [rhesus TRIM5α, 332-344 = GARGTLFQTLT] | 0.478 ± 0.23
MASGILLNVKEEVTCPICLELLTEPLSLHCGHSFCQACITANHKKSMLYKEGERSCPVCRISYQPENIQPNRHVANIVEKLREVKLSPEEGQKVDHCARHGEKLLLFCQEDSKVICWLCERSQEHRGHHTFLMEEVAQEYHVKLQTALEMLRQKQQEAEKLEADIREEKASWKIQIDYDKTNVSADFEQLREILDWEESNELQNLEKEEEDILKSLTKSETEMVQQTQYMRELISELEHRLQGSMMDLLQGVDGIIKRIENMTLKKPKTFHKNQRRVFRAPDLKGMLDMFRELTDARRYWVDVTLAPNNISHAVIAEDKRQVSSRNPQIMYGAPGTLYTFQTFTNFNYCTGVLGSQSITSGKHYWEVDVSKKSAWILGVCAGFQSDAMYNIEQNENYQPKYGYWVIGLQEGVKYSVFQDGSSHTPFAPFIVPLSVIICPDRVGVFVDYEACTVSFFNITNHGFLIYKFSQCSFSKPVFPYLNPRKCTVPMTLCSPSS [rhesus TRIM5α, 332-344 = GAPGTLYTFQTFT] | 0.855 ± 0.43

± gives the standard deviation of the averaged measurements. Restriction of a single-cycle SIVsab GFP reporter by TRIM5α v1-loop variants in CRFK cells. Human variants: read share among cells still uninfected after two challenges over input, higher = gained restriction. Rhesus variants: share among infected cells over input, higher = lost restriction. Reporter dose not given per row. No active / inactive call per row; the paper calls a change when both replicates lie above its controls (mean + 2 SD of stop or wild-type variants, or the top frameshift score). Residues outside the varied loop are taken from Swiss-Prot. The paper reads the human single-substitution scores as noise; they and the rhesus combinations repeat poorly (rank correlation 0.3 to 0.4), indel scores repeat only for the top variants, rhesus substitutions well (0.9).
